Where two headings read alike, the source gives them in different places.
Molecular target: hSERT I172M (Homo sapiens, UniProt P31645, I172M)
Format: cell-based
[1] = […], inhibition of [3H]5HT uptake, read-out: EC50(μM) I172M

Row | SMILES | Fold Δ | EC50 (read-out: EC50(μM) I172M) [µM] | EC50 [1] [µM] | EC50 [µM]
1 | NCCc1c[nH]c2c(O)c(O)c(O)cc12 [5,6,7 trihydroxytryptamine] | .2 | 2.7 | – | –
2 | NCCc1c[nH]c2c(O)cccc12 [7-hydroxytryptamine] | 1 | 1.1 | – | –
3 | CC(N)Cc1c[nH]c2ccc(O)cc12.O=C(O)/C=C\C(=O)O (stereo not drawn) [Alpha-methylserotonin maleate] | 1 | – | 2.3 | –
4 | CNC(C)Cc1ccc2c(c1)OCO2 (stereo not shown) [MDMA] | 1 | 0.8 | – | –
5 | OC1(c2ccc(Cl)cc2)c2ccccc2C2=NCCN21 (stereo not shown) [Mazindol] | 12 | – | – | 36
6 | CNCCC(Oc1ccccc1OC)c1ccccc1 (stereo not shown) [Nisoxetine] | 145 | – | – | 197
7 | COC(=O)[C@H]1C(c2ccc(I)cc2)C[C@@H]2CC[C@H]1N2C (stereo partly shown) [RTI-55] | 176 | – | 0.12 | –
8 | NCCc1c[nH]c2ccccc12 [Tryptamine] | 0 | 0.2 | – | –

From patent US7439039B2, “Assays for novel serotonin transporter (SERT) blockers” (priority 2003, dated 2008)
